Assay results as given in the BET-seq Pho4 binding data (Le et al. 2018).
Some of the results follow. Values were computed here from the reads of four pooled replicates and scatter widely.

target: T1, Pho4 (S. cerevisiae) (UniProt P07270); assay: relative binding free energy (BET-seq); higher = weaker binding; settings: reference: library average
T1 sequence: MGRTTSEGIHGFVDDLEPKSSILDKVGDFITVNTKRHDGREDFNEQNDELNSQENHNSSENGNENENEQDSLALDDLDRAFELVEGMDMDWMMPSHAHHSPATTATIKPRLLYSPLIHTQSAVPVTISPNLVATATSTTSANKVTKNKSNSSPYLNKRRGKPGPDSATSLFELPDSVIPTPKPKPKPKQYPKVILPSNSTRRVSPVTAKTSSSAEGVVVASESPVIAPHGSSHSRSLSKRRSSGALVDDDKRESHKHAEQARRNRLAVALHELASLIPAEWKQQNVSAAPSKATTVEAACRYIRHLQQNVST

Row | Sequence | relative binding free energy [kcal/mol]
1 | TGGCTCACGTGGTCGG | 0.12
2 | TTGTTCACGTGTCTCG | 0.17
3 | ATCAGCACGTGGTTGT | -0.1
4 | AGGTTCACGTGGACTG | 0.24
5 | TTAGGCACGTGTCTTT | -0.03
6 | TTGGTCACGTGTCAAG | 0.21
7 | CAGGACACGTGTAAGT | 0.22
8 | GTGGACACGTGTAGAT | 0.34
9 | GGTTTCACGTGTACAT | 0.24
10 | GTTTACACGTGTTCGG | 0.22
11 | TTGGACACGTGGGCAA | 0
12 | TTCTGCACGTGGATGG | 0.12
13 | GTAAGCACGTGGCGCG | -0.02
14 | ACGTGCACGTGGGGTT | -0.13
15 | TTGGACACGTGTAAGT | 0.31
16 | AGTGCCACGTGGAGTC | 0.01
17 | CGTATCACGTGGGGTG | -0.21
18 | ATTTGCACGTGGTTGT | 0.13
19 | GCTAACACGTGTTAGG | 0.07
20 | TGAGCCACGTGTGGGC | -0.03
21 | TAGGGCACGTGTTGTA | -0.15

Row | Sequence | relative binding free energy [kcal/mol]
22 | GGGACCACGTGGGTGC | -0.2
23 | AGCAGCACGTGATTTG | 0.26
24 | AAATGCACGTGGTAGG | -0.09
25 | AATAGCACGTGGTTGT | -0.11
26 | TAGATCACGTGCGTAT | 0.11
27 | TGGTACACGTGTGCTA | -0.12
28 | TTATTCACGTGCAGAT | 0.07
29 | TTCTACACGTGGTTGA | 0.01
30 | TCTTGCACGTGTCTGG | -0.09
31 | CGTAGCACGTGTGTAT | 0
32 | TTTTGCACGTGCTTAT | -0.02
33 | AAGAACACGTGTGAGT | 0.13
34 | TGTTGCACGTGATAGG | 0.09
35 | GCAGTCACGTGTGTTT | 0.28
36 | ATTGACACGTGGTCTG | -0.08
37 | GAAGGCACGTGTATTA | 0.09
38 | AGTTACACGTGGCTAT | 0.02
39 | TATTTCACGTGAGTTA | 0.34
40 | GGGCGCACGTGCTTGT | -0.18
41 | AGATTCACGTGGCGTA | 0.31
42 | AAGCGCACGTGGGAGT | -0.19

Row | Sequence | relative binding free energy [kcal/mol]
43 | GTAGTCACGTGTAAGG | 0.21
44 | GTCGGCACGTGGGCGA | -0.14
45 | TTATGCACGTGAAGGG | 0.3
46 | TCGGGCACGTGTACGG | -0.07
47 | TCAGGCACGTGGGGTG | -0.26
48 | AGTGACACGTGTAGTT | 0.06
49 | TTCCTCACGTGAGGGG | 0.37
50 | GTGTACACGTGGTGCG | 0
51 | GTGCGCACGTGTCTTT | 0.02
52 | TCGGACACGTGAGGTG | 0.33
53 | TAGATCACGTGCTAGG | 0.29
54 | GTGCTCACGTGTAGAT | 0.45
55 | TATATCACGTGAAGGG | 0.46
56 | AAGTTCACGTGGTCTG | 0.06
57 | TTGCTCACGTGTTGGC | 0.17
58 | GTTAGCACGTGTGGGT | 0.09
59 | CGGCACACGTGTGGAG | 0.2
60 | TTGTGCACGTGCAGTG | 0.09
61 | AGCCGCACGTGGGGGT | -0.28
62 | GGGTTCACGTGGAGTG | 0.38
63 | CATAACACGTGTGGGA | 0.07
